Laboratory results: PubChem BioAssay AID1768 (National Center for Advancing Translational Sciences (NCATS), 2009)
About 620 (0.23%) of roughly 270,000 compounds were called active. The shares of active, inactive and inconclusive entries below differ from those in the screen. The call rests on the fitted dose curve; in most records, active means well fitted inhibition curve with a large enough effect in the polarisation, with a control signal flat (not every such curve was filed as active); inconclusive means small, poorly fitted or top-dose-only effect, or effect the other way, or a change in a side signal; inactive means no such curve, though single readings can be large or run the other way; the % refers to the polarisation. Potencies of inconclusive entries are doubtful fits and often do not repeat. A note “side channel” means that the fit belongs to a control or component signal, not to the main read-out.

Biological target: Menin (Homo sapiens) (UniProt O00255)
UniProt O00255, sequence (O00255 whole entry, looked up): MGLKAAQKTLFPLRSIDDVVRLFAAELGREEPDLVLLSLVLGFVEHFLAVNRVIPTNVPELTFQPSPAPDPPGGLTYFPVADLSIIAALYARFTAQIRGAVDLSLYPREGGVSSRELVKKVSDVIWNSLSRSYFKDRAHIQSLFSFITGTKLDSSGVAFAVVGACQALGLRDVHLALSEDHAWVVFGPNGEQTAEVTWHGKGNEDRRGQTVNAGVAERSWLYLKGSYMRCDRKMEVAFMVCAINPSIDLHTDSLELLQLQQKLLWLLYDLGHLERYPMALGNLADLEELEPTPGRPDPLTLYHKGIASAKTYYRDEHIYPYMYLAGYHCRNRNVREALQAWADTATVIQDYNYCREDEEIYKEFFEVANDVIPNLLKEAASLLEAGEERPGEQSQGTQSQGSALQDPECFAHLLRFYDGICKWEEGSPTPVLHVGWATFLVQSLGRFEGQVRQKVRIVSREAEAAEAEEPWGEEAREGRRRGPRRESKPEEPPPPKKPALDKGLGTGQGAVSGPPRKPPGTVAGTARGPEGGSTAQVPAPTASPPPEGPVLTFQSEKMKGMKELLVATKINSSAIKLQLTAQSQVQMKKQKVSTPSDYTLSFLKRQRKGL
Assay: qHTS Assay for Inhibitors Targeting the Menin-MLL Interaction in MLL Related Leukemias: Competition With Texas Red Labeled MLL-derived Mutant Peptide; on FP activity change, negative = inhibition: % of control where 0% means no effect
Settings: fluorescence polarization; FP activity change, negative = inhibition: at 61.6 µM (top of the series)
Potency means the concentration at half of the fitted maximal effect; tags describe the fitted curve by direction and shape or compound fluorescence and quenching.

Potency, inconclusive:
CCc1ccc(NC(=O)c2noc(C(C)C)c2[N+](=O)[O-])cc1 25.1 µM [quencher, side channel, partial curve]
COc1cccc(N=C2NC(=O)/C(=C/c3cc([N+](=O)[O-])ccc3O)S2)c1 25.1 µM [quencher, side channel, partial curve]
CCCCCC(=O)NNC(=S)NC(=O)c1ccccc1[N+](=O)[O-] 3.98 µM [fluorescent, side channel, partial curve, poor fit]
COc1ccccc1NC(=O)Cn1c(O)c(N=NC(=O)c2ccccc2O)c2ccccc21 15.8 µM [quencher, side channel, partial curve]
CSc1nc2sc3c(c2c(=S)[nH]1)CC(C)(C)OC3 25.1 µM [quencher, partial curve]
COc1cccc(-c2nc(CS(=O)(=O)CC(=O)NCCCOC(C)C)c(C)o2)c1 8.91 µM [inhibitor, partial curve, poor fit]
COC(=O)Cc1c(C)c2ccc(OCC(=O)NCc3ccc4c(c3)OCO4)cc2oc1=O 17.8 µM [fluorescent, side channel, partial curve]
CCOC(=O)C1(CCOC)CCN(Cc2ccc(C(=O)OC)cc2)CC1 15.8 µM [quencher, side channel, partial curve]
CCn1ncc([N+](=O)[O-])c1C(=O)Nc1nc2cccc(C)c2s1 15.8 µM [quencher, side channel, partial curve]
O=c1cc(-c2ccccc2O)oc2ccc3ccccc3c12 44.7 µM [inhibitor, single point]
Cc1cc(/C=C2\NC(=S)N(C)C2=O)ccc1N1CCCC1 25.1 µM [quencher, side channel, single point]
CCOC(=O)C1=C(C)NC2=C(C1c1ccc([N+](=O)[O-])cc1)S(=O)(=O)c1ccccc12 (stereo unspecified) 7.08 µM [quencher, side channel, partial curve]
COc1ccccc1N1CCN(C(=O)c2ccccc2NC(=O)C2CCCCC2C(=O)O)CC1 (stereo unspecified) 2.24 µM [inhibitor, partial curve]
COc1cc(NC(=O)c2ccc(NS(=O)(=O)c3c(C)noc3C)cc2)cc(OC)c1 12.6 µM [quencher, side channel, partial curve]
O=C(Cn1cnc2c(nnn2Cc2ccc(F)cc2)c1=O)Nc1ccc2c(c1)OCCO2 7.94 µM [inhibitor, full curve]
CCc1cc(C(C)=O)c(O)cc1OCCCCCC(C)(C)c1nn[nH]n1 1.58 µM [quencher, side channel, partial curve]
CC(C)OC(=O)Cn1nnc(-c2ccccc2)n1 39.8 µM [inhibitor, single point]
OCCN1CCN(c2ncnc3sc(-c4ccccc4)cc23)CC1 7.94 µM [inhibitor, partial curve, poor fit]
CC(C)Oc1cccc(C(=O)C2CCCN(C(=O)c3ccsc3)C2)c1 (stereo unspecified) 3.16 µM [fluorescent, side channel, partial curve]
O=C(NCc1cccs1)C1CC(c2ccc(Cl)cc2)=NO1 (stereo unspecified) 35.5 µM [fluorescent, partial curve]
COc1ccc2c(c1)c1nnc(SCC(=O)NC3CC3)nc1n2C 20 µM [quencher, side channel, single point]
O=C(c1cc(-c2ccccc2)nc2ccccc12)N1N=C(C(F)F)CC1(O)C(F)F (stereo unspecified) 22.4 µM [quencher, side channel, partial curve]
COc1ccc(SCCc2nnc(-c3ccccc3)o2)cc1 7.94 µM [inhibitor, full curve]
Cn1c(N)c(C(=O)COC(=O)COc2ccc3ccccc3c2)c(=O)n(C)c1=O 14.1 µM [quencher, side channel, partial curve]
O=C(Nc1nonc1-c1ccc(Cl)cc1)c1ccccc1 12.6 µM [quencher, side channel, partial curve]
CC(=O)N1C(C)(C)CC(=NOC(=O)c2ccc(C)cc2)CC1(C)C 15.8 µM [fluorescent, side channel, partial curve]
COC(=O)c1ccccc1NC(=O)CN(c1ccc(C)cc1)S(C)(=O)=O 8.91 µM [inhibitor, partial curve]
CCc1ccc(N2CC(C(=O)OCC(=O)Nc3cc(C)on3)CC2=O)cc1 (stereo unspecified) 39.8 µM [fluorescent, side channel, single point]
Cc1ccc(C(=O)NCC(=O)Nc2ccc(C)c(S(=O)(=O)Nc3ccc(Cl)cc3)c2)s1 5.62 µM [inhibitor, full curve]
CC(C)(C)c1ccc(C(=O)N/C(=C\c2ccco2)C(=O)Nc2ccccc2C(=O)O)cc1 12.6 µM [quencher, side channel, partial curve]
CCCCCCC(=O)N=Nc1c(O)[nH]c2ccc([N+](=O)[O-])cc12 35.5 µM [quencher, side channel, single point]
C=Cc1cccc(NC(=O)c2ccc(NC(=O)c3ccco3)cc2)c1 31.6 µM [quencher, side channel, partial curve]

FP activity change, negative = inhibition, inactive:
Cc1ccccc1CN1CCN(Cc2ccccc2C(F)(F)F)CC1 -2.47%
CCOC(=O)CCCCC(=O)c1[nH]c(=O)[nH]c1CSc1nnc2c3ccccc3n(C(C)C)c2n1 3.37%
COc1ccc(-c2nc3cnc(N(C)C)nc3n(CCc3ccccc3)c2=O)cc1 20.6%
O=C(Nc1ccc2c(c1)OCCO2)C1CCCN1S(=O)(=O)c1ccc(Cl)cc1 (stereo unspecified) 7.28%
